Each structure is given as a SMILES string.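 Activity criterion: percent growth below 10, measured after cells in 96-well plates were exposed to a single compound concentration for 48 hours.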 A number of entries come with more than one value. They are shown here; other results are not. There may be further records. This drug was run again and again over the years, at the concentration stated with the values; one value stands for one run. Counts like (3×) count equal records among those shown.

The experiment relates to XF 498 CNS. Description: NCI-60 one-dose screen, 48 h (100 = growth as untreated, 0 = no growth, -100 = all killed). The note with it: 2.5 mM. How it is done: Growth inhibition of the XF 498 human tumor cell line is measured as a screen for anti-cancer activity. Cells are grown in 96 well plates and exposed to the test compound for 48 hours. Compounds are tested at a single concentration, which is 10^-5 M for most compounds. The reported endpoint is percent growth (GI% or GIPRCNT), where numbers from 0 - 100% represent growth inhibition, and numbers from -100% - 0 represent cell death. For example, a value of 40 represents 60% growth inhibition. A value of 0 means no net growth occurred over the course of the experiment. A value of -40 indicates 40% of cells at the beginning of the experiment died by the end of the experiment. A value of -100 means all cells are dead at the end of the experiment.
NCI-60 Human Tumor Cell Lines Screen was performed using the standard one-dose NCI protocol, which is described in more detail at https://dtp.cancer.gov/discovery_development/nci-60/default.htm.
Compounds with GIPRCNT values below 10 were considered active. Activity score was based on GIPRCNT using the following formula: […]
Score is 0 for GIPRCNT values of 100 or above, 50 for GIPRCNT values of 0, and 100 for GIPRCNT values of -100.

As for `O=c1[nH]cc(F)c(=O)[nH]1`, the growth was 22.3, -9.3, -14.3, 50.3, -5.71, -10.4, 10.4, -9.35, 15, 22.8, -8.18% (runs of 1991) and 16.6, -23.2, -3.08, 29.4, 50.3, -23.1, -1.44, 20.6, 79.1, -16 (2×), 32.6, 8.51, -27.1, -1.49, 34.7, 4.68, 31.8, 7.69, -7.28, -2.79, -26.9, 31.1, -16.3, -5.03, 17.3, 22.2, 34, 11.2, -6.6, -9.36, -12, 9.29, -12.9, -18.4, -29, -25.1, -4.29, -9.69, 7, -10.4, -9.33, 8.84, -8.7, -23.4, -25.7, -13.8, 24.6, 183, -5.95, 2.49, 35, -14.7, -3.78, 7.87, 8.05, 24.7, 9.62, 23.6, 28.7, 6.85, 14.3, 16.2, 19.6, 57.2, 19.3, 35.3, 17.8, -21, -0.816, -4.76, 8.25, -6.44, -18.9, -8.62, -7.44, 39.9, 4.33, 13, -2, 2.7, -7.12, 27.8, 25.4, -2.45, -17.6, -6.01, -17.2, 52.4% (runs of 1992).

Values taken from PubChem BioAssay AID1794749 (DTP/NCI, 2022).
